Results taken from PubChem BioAssay AID485344 (National Center for Advancing Translational Sciences (NCATS), 2010).
Out of some 340,000 compounds screened, about 6,900 (2%) were called active. No stated cut-off is given here; in the data, active means inhibition above about 30%; inactive means below that, where a call was filed. Only a part is listed here, and it is no random draw. The source gives no active or inactive call for entries shown without one.

Molecular target: D(2) dopamine receptor (Homo sapiens) (UniProt P14416)
Chain of UniProt P14416 (P14416 whole entry, looked up): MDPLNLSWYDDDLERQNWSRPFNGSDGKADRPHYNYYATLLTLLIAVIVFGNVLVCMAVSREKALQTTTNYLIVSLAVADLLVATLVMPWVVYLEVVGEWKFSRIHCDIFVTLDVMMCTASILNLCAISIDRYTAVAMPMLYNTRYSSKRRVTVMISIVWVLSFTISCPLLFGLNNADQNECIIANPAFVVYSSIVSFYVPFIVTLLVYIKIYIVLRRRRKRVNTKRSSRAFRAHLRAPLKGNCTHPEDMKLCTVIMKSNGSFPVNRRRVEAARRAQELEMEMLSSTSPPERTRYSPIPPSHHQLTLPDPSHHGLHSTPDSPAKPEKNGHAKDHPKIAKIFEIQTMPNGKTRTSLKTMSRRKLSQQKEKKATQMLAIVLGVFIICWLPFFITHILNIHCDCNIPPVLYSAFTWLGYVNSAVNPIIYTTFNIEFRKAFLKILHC
Assay: HTS Assay for Allosteric Antagonists of the Human D2 Dopamine Receptor: Primary Screen for Antagonists; further: 0% is about no effect
Conditions: HEK293 TREx D2 cells, calcium flux, dopamine EC80; at 10 µM; stronger effect = higher value
Summary of the method: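 Tetracycline-induced HEK293 TREx cells expressing D2 receptor forced-coupled to calcium signalling, loaded with no-wash calcium dye. Compounds added and calcium flux read 180 s, then dopamine added at EC80 and read a further 180 s.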

SMILES | inhibition
CC(C)Oc1ccc(C(=O)Nc2nnc3n2CCS3)cc1 | -7.13%
COC(=O)CSc1nc2sc3c(c2c(=O)n1-c1ccccc1)C(C)CCC3 (stereo not given) | -9.35%
O=C(Cn1cc(SCc2ccc(Cl)cc2)c2ccccc21)N1CCOCC1 | -12.2%
CC(CCc1ccccc1)NCc1ccncc1 (stereo not given) | active: 63.7%
CCCc1nn2c(=O)cc(COC(=O)c3cccc(NC(=O)c4ccc(OCC)cc4)c3)nc2s1 | 7.97%
Cn1c(=O)c2c(nc(N3CCOCC3)n2Cc2ccccc2F)n(C)c1=O | -14.9%
O=C(Nc1ccccc1C(F)(F)F)C1CCN(S(=O)(=O)c2ccccc2)CC1 | 12.8%
O=C(CSc1nc2ncccc2o1)Nc1ccc(Cl)cc1F | 2.3%
CCOC(=O)c1cc(-c2ccc(F)cc2)n(CCC(=O)Nc2cc(OC)cc(OC)c2)c1C | -10.5%
COc1ccccc1N(CC(O)Cn1ccnc1C)S(=O)(=O)c1ccccc1 (stereo not given) | active: 34.3%
CCC(=O)Oc1c(Sc2ccc(C)cc2)c(C)nn1-c1ccccc1 | 15.5%
COCCCn1c(SCC(=O)Nc2ccc(OC)cc2)nc2c(sc3ccccc32)c1=O | 2.94%
O=C(CSc1nc(=O)n(CCN2CCOCC2)c2c1CCC2)Nc1ccc(F)cc1F | -0.262%
CC(C)CC(=O)Nc1ccc2nc(SCC(=O)N3CCOCC3)sc2c1 | 1.49%
COc1ccc(OC)c(NC(=O)c2cc3cccc(OC)c3oc2=O)c1 | 5.33%
CCCNC(=O)c1ccc(Cn2c(SCC(N)=O)nc3ccccc3c2=O)cc1 | 7.36%
Cc1ccc(-c2nc3cccc(C)n3c2Nc2ccc3c(c2)OCO3)o1 | -26.7%
CCOc1ccccc1C(=O)N1CCc2cc(OC)c(OC)cc2C1COc1ccc(OC)cc1 (stereo not given) | -4.37%
Cc1nn(-c2ccccc2)c(OC(=O)c2ccc(Cl)cc2)c1S(=O)(=O)c1ccccc1 | -1.49%
COc1ccc(C2=C(C)C(=NCCCN3CCN(c4cc(Cl)ccc4C)CC3)NS2(=O)=O)cc1 | 3.03%
Cc1ccc(NC(=O)Cn2cc(S(=O)(=O)Cc3cccc(Cl)c3)c3ccccc32)cc1C | 1.33%
COc1ccc(-n2ncc(C(=O)Nc3ccc4c(c3)OCO4)c2C2CCN(C(=O)OC(C)(C)C)CC2)cc1 | -5.16%
COc1ccc2oc(-c3ccc(C)c(NC(=O)c4ccc5c(c4)OCCO5)c3)nc2c1 | 6.83%
O=C(NCc1ccccc1Br)c1ccc2c(c1)nc1n2CCOC1 | -3.88%

SMILES | inhibition
O=C(CCC1N=C2c3ccccc3N=C(SCc3ccccc3F)N2C1=O)NCc1ccccc1 (stereo not given) | 7.41%
CCCNC(=O)COCc1cc(-c2ccc(F)cc2)on1 | 9.87%
Cc1ccc(CNC(=O)CN2C(=O)CSc3c2c(C)nn3-c2ccccc2)cc1 | -12.5%
COc1ccc(NC(=O)c2oc3ccccc3c2NC(=O)Cc2coc3cc(C)ccc23)cc1 | 4.87%
COc1ccc(C)cc1NC(=O)CCNC(=O)Cn1ccc2ccccc2c1=O | 6.02%
CN1C(=O)Cc2cc(S(=O)(=O)CCC(=O)Nc3ccc(Cl)c(C(F)(F)F)c3)ccc21 | 14%
CCOC(=O)c1c(C)[nH]c(CCC(=O)NCc2cccc(C)c2)c1C | 5.63%
O=[N+]([O-])c1ccc(C(O)CN2CCN(c3ccccc3)CC2)cc1 (stereo not given) | active: 46.4%
Cc1cc(F)ccc1NC(=O)C1CCN(C(=O)c2cnn(-c3ccccc3)c2-n2cccc2)CC1 | -1.68%
COC(=O)c1ccccc1NC(=O)c1ccc(-c2nc(COc3ccccc3)c(C)o2)cc1 | -11.1%
O=C(CCC1N=C2c3ccccc3N=C(SCc3cccc(F)c3)N2C1=O)NCCc1ccccc1 (stereo not given) | 12.9%
Cc1cccc(C)c1NC(=O)Cn1nnc(C(=O)Nc2c(C)cccc2C)c1N | 7.55%
CCCCc1nn2c(=O)cc(COC(=O)c3cccc(Cl)c3)nc2s1 | 8.64%
CC1(c2ccccc2Cl)NC(=O)N(CC(=O)Nc2ccc(N3CCCCC3)cc2)C1=O (stereo not given) | active: 34.7%
CCCCN(CC)CCCNC(=S)Nc1ccc2nc3n(c(=O)c2c1)CCCCC3 | active: 59.7%
Cc1cc(OCC(=O)Nc2c(C(=O)c3ccccc3)oc3ccccc23)cc(C)c1Cl | -1.21%
CCN1CCN(CCCNC(=O)c2cnn(-c3ccccc3Cl)c2C2CCN(C(=O)OC(C)(C)C)CC2)CC1 | 6.47%
CCOC(=O)C1CCCN(c2c(C(=O)c3ccc(OCC)cc3)cnc3ccccc23)C1 (stereo not given) | -1.87%
Cc1nn(C)c2c1c(-c1ccccc1)cc(=O)n2Cc1ccccc1C#N | 7.24%
O=C1c2oc3ccccc3c(=O)c2C(c2ccc(O)cc2)N1Cc1ccc2c(c1)OCO2 (stereo not given) | -6.68%
O=C(c1ccc(Cl)cc1)N1CCC(c2nc3ccccc3o2)CC1 | 7.02%
CCOc1ccc(NC(=O)c2c(NCc3ccc(C)o3)sc3c2CCCCC3)cc1 | 1.18%
Cc1ccc(CNC(=O)CN2C(=O)CSc3ccc(S(=O)(=O)N(C)C)cc32)cc1 | 6.74%
CCn1cc(C(=O)OCC(=O)Nc2cc(OC)cc(OC)c2)c(=O)c2ccc(C)nc21 | -15.6%

SMILES | inhibition
CC(=O)n1nc(-c2cccnc2)nc1NCc1ccc(F)cc1 | -2.71%
O=C(OCc1cc(=O)n2nc(-c3cccs3)sc2n1)c1ccccc1 | -0.574%
COc1ccc(NC(=O)c2c(NCc3cccs3)sc3c2CCCC3)c(OC)c1 | -0.435%
COC(=O)C(CCSC)NC(=O)Cn1ncc2c([nH]c3ccccc32)c1=O (stereo not given) | 1.15%
CCCOc1ccc(CNC(=O)c2ccc3c(c2)N(Cc2ccccc2)CCS3)cc1 | 3.83%
COc1cccc2c1cc1c(=O)n(CC(=O)N3CCN(c4cccc(Cl)c4)CC3)nc(C)n12 | -8.06%
O=C(COC(=O)COc1ccccc1)NC12CC3CC(CC(C3)C1)C2 | active: 33.7%
CCCCNS(=O)(=O)c1ccc(N2CCCCS2(=O)=O)cc1 | -17%
O=C(Nc1ccc2nc(SCCOc3ccccc3)sc2c1)c1ccccc1F | -17.3%
CCOC(=O)c1c(C)c(-c2ccccc2)n(CC(=O)Nc2ccc(OCC)cc2)c1C | -1.55%
CCc1ccc(N(CC)C(=O)CCn2cnc3onc(-c4ccc(F)cc4)c3c2=O)cc1 | -21.7%
CCCNC(=O)Cn1c(=O)/c(=C\c2ccc(-c3ccc([N+](=O)[O-])cc3)o2)s/c1=C\C(=O)C(C)(C)C | active: 53.8%
Cc1ccc(-c2ccc(=O)n(CC(=O)NCCc3ccc(Cl)cc3)n2)cc1 | 23.4%
COc1ccccc1-c1noc(-c2ccc(N3CCN(C)CC3)c([N+](=O)[O-])c2)n1 | 4.88%
Cc1ccc(Cl)cc1N1CCN(C(=O)C2CCN(S(=O)(=O)Cc3ccccc3)CC2)CC1 | 2.58%
COc1ccc(NC(=O)NCCN2CCN(c3cccc(Cl)c3)CC2)cc1 | active: 36.1%
COc1ccccc1CNC(=O)CCCn1c(=O)c2ccccc2n(Cc2ccc(F)cc2)c1=O | 0.673%
Cc1ccc(CCNC(=O)CN(c2cc(C)cc(C)c2)S(=O)(=O)c2c(C)noc2C)cc1 | -15.8%
COc1ccccc1Nc1nc(-c2ccc(F)cc2)c2c(n1)-c1ccccc1OC2 | 24.9%
COc1cccc(-n2ccn(CC(=O)NCc3ccc(C)cc3)c(=O)c2=O)c1 | 6.14%
COc1ccccc1NC(=O)c1c(C)cc(C)nc1SCC(=O)Nc1ccc(C)c(C)c1 | -26.2%
Cc1cc(C)c(NS(=O)(=O)c2ccc3c(c2)CC(C)N3C(=O)C2CCC2)c(C)c1 (stereo not given) | 4.53%
Cc1ccc(NC(=O)Nc2cccc(C)n2)cc1 | 3.2%
CCOc1ccc(C2CC(=O)NC(NC(=O)c3cccc(Cl)c3)=N2)cc1 (stereo not given) | 1.56%

SMILES | inhibition
CCN1CCC(NC(=O)Nc2cccc(C(F)(F)F)c2)CC1 | active: 36.7%
CC(=O)c1ccc(NC(=O)c2cn(-c3ccccc3)nc2-c2ccc(Br)cc2)cc1 | 1.05%
O=C(CCC1CCCC1)N1CCc2c([nH]c3ccccc23)C1c1ccc(F)cc1 (stereo not given) | 12.9%
CCOc1ccccc1NC(=O)CSc1nnnn1-c1ccc(C(=O)OC)cc1 | active: 49.9%
COCCCNC(=O)C1C2C=CC3(CN(Cc4ccc(C)cc4)C(=O)C13)O2 (stereo not given) | active: 39.1%
CCc1nnc(SC(CC)C(=O)Nc2ccc(OC)c(Cl)c2)c2cc3occc3n12 (stereo not given) | 13.9%
CC1CCCN(S(=O)(=O)c2ccc(C(=O)Nc3nnc(-c4ccccn4)o3)cc2)C1 (stereo not given) | active: 34.6%
CCc1cccc(C)c1NC(=O)C1CCN(S(=O)(=O)c2c(C)noc2/C=C/c2c(C)cc(C)cc2C)CC1 | 12.9%
CCOc1ccc(NC(=O)NCCN2CCN(c3cccc(C)c3C)CC2)cc1 | 24.8%
N#Cc1nc(COc2ccccc2Cl)oc1NCCc1ccccc1 | -6.71%
Cc1ccc(Nc2ccc3cc(S(=O)(=O)N4CCCCC4)ccc3n2)cc1F | 2.09%
COc1ccc(C)cc1NC(=O)Cn1c(=O)oc2cc(S(=O)(=O)N3CCCCC3)ccc21 | -12.3%
CCOC(=O)c1ccc(NC(=O)CSc2nc(-c3ccc(OC)cc3)cc(C(F)(F)F)c2C#N)cc1 | -1.01%
COc1ccc(N(CC(=O)N2CCN(c3ccccc3)CC2)S(=O)(=O)c2c(C)nn(C)c2C)cc1 | 15.1%
COc1ccc(-c2cc3nc(C)c(CCC(=O)NCc4ccccc4Cl)c(C)n3n2)c(OC)c1 | 18.2%
CCOC(=O)c1c(C)oc2nc(C)nc(N3CCN(c4cc(Cl)ccc4C)CC3)c12 | -3.26%
CCOC(=O)c1cc(OC(=O)c2cc(OC)c(OC)c(OC)c2)n(-c2ccccc2)n1 | 11%
CCOc1ccc(-n2c(SCC(=O)Nc3cc(C)on3)nc3c([nH]c4ccccc43)c2=O)cc1 | -0.502%
CCc1ccccc1N(C)C(=O)Cn1cnc2sc(C)c(S(=O)(=O)N3CCC(C)CC3)c2c1=O | 12.7%
COc1cccc(CNC(=O)CCCn2nc(C)c3sc4ccccc4c3c2=O)c1 | 15.3%
COc1ccc(NC(=O)c2cc3c(=O)n(Cc4cccs4)ccc3nc2C)cc1 | 4.93%
COc1ccc(-n2c(C)nnc2SCc2nc(-c3ccc(OC)c(OC)c3)no2)cc1 | 3.8%
COc1ccc(OC)c(NC(=O)Cn2c(=O)n(-c3cccc(C)c3)c(=O)c3c2c2cc(C)ccc2n3C)c1 | -2.67%
